Data from PubChem BioAssay AID504332 (National Center for Advancing Translational Sciences (NCATS), 2011).
In all, about 350,000 compounds went through this assay and about 31,000 (8.9%) were called active. The shares of active, inactive and inconclusive entries below differ from those in the screen. Calls follow the shape of the dose curve; as a rule, active = well fitted inhibition curve with a large enough effect; inconclusive = small, poorly fitted or top-dose-only effect; inactive = no such curve, though single readings can be large or run the other way. Where the call is inconclusive, the potency comes from a doubtful curve fit.

Biological target: Histone-lysine N-methyltransferase EHMT2 (Homo sapiens) (UniProt Q96KQ7)
Assay: qHTS Assay for Inhibitors of Histone Lysine Methyltransferase G9a; also: nearly all actives have a fitted effect of over 75% in size
Conditions: G9a H3K9 monomethylation, AlphaScreen, 2 h; activity, negative = inhibition: at 59 µM (top of the series) unless noted
Procedure, shortened: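 G9a (20 nM) preincubated 15 min RT with compounds, then 500 nM biotinylated H3K9 peptide and 20 uM SAM added; 2 h RT reaction. Monomethyl-H3K9 product detected by AlphaScreen with anti-H3K9me1 antibody, streptavidin donor and anti-rabbit IgG acceptor beads.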
% is scaled to controls: 0 for no effect and ±100 for the full control effect; potency is read from the fitted curve at half-maximal effect; tags tell the direction and shape of the fitted curve.

UniProt Q96KQ7, sequence (Q96KQ7 whole entry, looked up): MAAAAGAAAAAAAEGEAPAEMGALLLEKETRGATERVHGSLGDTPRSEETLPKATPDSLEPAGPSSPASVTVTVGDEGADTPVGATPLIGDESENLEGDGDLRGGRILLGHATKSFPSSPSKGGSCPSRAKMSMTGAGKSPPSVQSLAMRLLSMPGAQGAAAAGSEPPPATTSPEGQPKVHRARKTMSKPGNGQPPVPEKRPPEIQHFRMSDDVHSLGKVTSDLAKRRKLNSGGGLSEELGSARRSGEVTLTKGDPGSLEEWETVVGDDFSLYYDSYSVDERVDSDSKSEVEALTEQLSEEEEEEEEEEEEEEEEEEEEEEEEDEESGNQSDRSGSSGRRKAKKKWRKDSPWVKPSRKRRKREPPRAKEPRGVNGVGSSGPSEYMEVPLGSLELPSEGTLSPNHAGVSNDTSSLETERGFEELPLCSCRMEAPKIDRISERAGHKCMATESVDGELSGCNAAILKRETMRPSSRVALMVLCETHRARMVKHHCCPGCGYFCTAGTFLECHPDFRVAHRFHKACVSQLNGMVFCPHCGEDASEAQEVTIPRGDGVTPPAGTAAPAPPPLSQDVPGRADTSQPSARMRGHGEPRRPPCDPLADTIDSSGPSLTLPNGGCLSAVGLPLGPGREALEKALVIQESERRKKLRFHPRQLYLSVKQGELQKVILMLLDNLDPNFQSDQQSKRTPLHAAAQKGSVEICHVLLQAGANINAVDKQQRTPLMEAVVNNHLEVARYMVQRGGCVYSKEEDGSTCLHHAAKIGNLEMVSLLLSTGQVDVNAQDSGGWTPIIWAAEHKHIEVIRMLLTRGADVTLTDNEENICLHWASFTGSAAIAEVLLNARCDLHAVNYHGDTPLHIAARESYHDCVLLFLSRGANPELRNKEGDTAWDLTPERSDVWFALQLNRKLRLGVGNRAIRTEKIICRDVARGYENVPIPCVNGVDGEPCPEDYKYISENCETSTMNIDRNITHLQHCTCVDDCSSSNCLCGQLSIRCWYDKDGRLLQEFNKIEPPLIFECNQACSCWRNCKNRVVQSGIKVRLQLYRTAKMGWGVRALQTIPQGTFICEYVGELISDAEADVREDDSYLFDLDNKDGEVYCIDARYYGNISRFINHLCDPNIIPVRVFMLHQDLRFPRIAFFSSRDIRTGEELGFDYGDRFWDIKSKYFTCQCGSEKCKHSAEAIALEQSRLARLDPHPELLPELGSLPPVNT

SMILES	Potency	activity, negative = inhibition
COc1cc2c(C(=O)N3CCN(c4cccc(C)c4)C(C)C3)cn(CC(C)C)c(=O)c2cc1OC (stereo unspecified)	inactive	–
COc1ccc(Cl)cc1NC(=O)c1cc(S(=O)(=O)N2CCc3ccccc32)cn1C	inconclusive: 11.2 µM [inhibitor, partial curve]	–
Cn1nnc(NC(=O)c2cccc(OCc3ccccc3)c2)n1	inactive	–
CCCC(C)C(=O)Nc1nc(C)c(-c2csc(Nc3ccccc3OC)n2)s1 (stereo unspecified)	active: 7.94 µM	–
O=C(c1ccccc1)C1CCN(c2ncccc2[N+](=O)[O-])CC1	inconclusive: 28.2 µM [inhibitor, partial curve, poor fit]	–
Cc1c(S(=O)(=O)N2CCCCC2)c(=O)n(C)c(=O)n1C	inactive	–
COc1ccccc1NC(CC(=O)c1ccccc1)C(=O)OCC(=O)c1ccc(Br)cc1 (stereo unspecified)	inconclusive: 10 µM [inhibitor, full curve, poor fit]	–
CCOC(=O)c1c(-c2ccc(C)o2)csc1NC(=O)CN1CCN(CC)CC1	active: 12.6 µM	–
O=C(NNC(=O)c1ccccc1F)c1ccc2[nH]c(=O)c(=O)[nH]c2c1	inactive	–
Cc1ccc(/C=C2/NC(=O)N(Cc3ccccc3)C2=O)s1	inconclusive: 6.31 µM [inhibitor, single point]	–
COc1ccc(C)cc1Nc1n[n+](-c2ccccc2)c(-c2ccc(C(=O)O)cc2)s1	active: 10 µM	–
CC1CCCN(C(=O)C(=O)c2cn(CC(=O)N3CCCCCC3)c3ccccc23)C1 (stereo unspecified)	inactive	–
Nc1cc(=O)[nH]c(=S)n1-c1cccc(C(F)(F)F)c1	inconclusive: 39.8 µM [inhibitor, single point]	–
CS(=O)(=O)N1Cc2ccccc2CC1C(=O)O (stereo unspecified)	active: 39.8 µM	–
CCc1nnc(NC(=O)c2nc(S(C)(=O)=O)ncc2Cl)s1	active: 7.08 µM	–
O=C(Nc1nnc(SCc2ccc(Cl)cc2)s1)C1CCCO1 (stereo unspecified)	inconclusive: 56.2 µM [inhibitor, partial curve, poor fit]	–
COc1ccc(OC)c(CNc2nc3ccccc3n2CCN2CCCCC2)c1	inconclusive: 0.158 µM [inhibitor, full curve, poor fit]	–
NC(=O)NC(=O)C(Nc1ccc(N2CCCCC2)cc1)c1ccccc1 (stereo unspecified)	active: 15.8 µM	–
O=C(CN1C(=O)CSc2ccc(S(=O)(=O)N3CCCCC3)cc21)NCc1ccc(F)cc1Cl	inconclusive: 5.01 µM [inhibitor, single point]	–
COc1cc2ccccc2cc1C(=O)Nc1ccc2oc(-c3cc(Br)ccc3Cl)nc2c1	inactive	–
Cc1ccc(-n2c(N)c(C(=O)NCc3ccco3)sc2=S)cc1	–	inconclusive: -84% [inhibitor]
COc1cccc(-c2nn(-c3ccccc3)cc2/C=C(\C#N)C(=O)NCCCn2ccnc2)c1	inconclusive: 1.12 µM [inhibitor, partial curve, poor fit]	–
COC(=O)c1nn2c(C(F)(F)F)cc(-c3ccc(Br)o3)nc2c1Br	active: 44.7 µM	–
CCOc1ccc(-c2nn3c(-c4ccc(OC)cc4)nnc3s2)cc1	inconclusive: 89.1 µM [inhibitor, single point]	–

SMILES	Potency	activity, negative = inhibition
Cc1ccc(NC(=O)NCc2c(C)nn(C)c2C)cc1Cl	inconclusive: 2.24 µM [inhibitor, partial curve, poor fit]	–
CC(C)(C)Sc1ccc2nc3c(n2c1)CCCC3	active: 50.1 µM	–
CC(CN1CCOCC1)OC(=O)c1ccccc1Cl (stereo unspecified)	inconclusive: 89.1 µM [inhibitor, single point]	–
Brc1ccccc1-c1nnc(CSc2nnnn2-c2ccccc2)o1	inconclusive: 0.794 µM [inhibitor, full curve, poor fit]	–
COc1cc(/C=N/NC(=O)c2cc3ccccc3[nH]2)ccc1O	inconclusive: 89.1 µM [inhibitor, single point]	–
c1ccc(C2=NNC(c3ccccn3)=NN2)nc1	active: 31.6 µM	–
CCCN1CNc2c(c(=O)[nH]c(=S)n2-c2ccccc2Cl)C1	inconclusive: 100 µM [inhibitor, single point]	–
O=C(NC1CCN(Cc2cccc([N+](=O)[O-])c2)CC1)c1ccccc1	inconclusive: 89.1 µM [inhibitor, partial curve, poor fit]	–
CSc1nsc(SCC(=O)Nc2nncs2)n1	inconclusive: 35.5 µM [inhibitor, single point]	–
CN1C(=O)c2cccc3c(S(=O)(=O)Nc4ccc(O)c(C(=O)O)c4)ccc1c23	inconclusive: 79.4 µM [inhibitor, single point]	–
Cn1c(=O)c(-c2ccc(F)cc2)nc2cncnc21	–	inactive: -27.3% [at 12.7 µM]
O=C(O)c1ccc2c(c1)C(=O)N([C@H](Cc1ccc(O)c(O)c1)C(=O)O)C2=O	active: 2 µM	–
Fc1cccc(CSc2nnc3c(n2)[nH]c2ccccc23)c1	inactive	–
CNc1nnc(CSc2nc3ccccc3s2)s1	inconclusive: 22.4 µM [inhibitor, single point]	–
O=C(CCn1nc(-c2ccc(Cl)cc2)ccc1=O)N1CCN(c2ccccc2)CC1	inactive	–
COCCn1c(SCC(=O)c2[nH]c(C)c(C(C)=O)c2C)nc2ccccc21	inconclusive: 0.631 µM [inhibitor, partial curve, poor fit]	–
CCn1c(=S)sc2c(=O)[nH]c(C)nc21	inactive	–
CCn1c(C)nc2cc(C(=O)NNC(=S)Nc3ccccc3OC)ccc21	inconclusive: 56.2 µM [inhibitor, partial curve]	–
CCn1c(SCC(=O)N2CCOCC2)nc2sc3c(c2c1=O)CCCC3	inconclusive: 89.1 µM [inhibitor, single point]	–
CCOC(=O)c1[nH]ncc1CN1CCc2ccc(NC(=O)C3CCCO3)cc2C1 (stereo unspecified)	inconclusive: 89.1 µM [inhibitor, single point]	–
Cc1ccc(OCC(=O)Nc2cc(C(=O)O)cc(C(=O)O)c2)cc1C	inconclusive: 89.1 µM [inhibitor, single point]	–
O=C(O)c1cc(S(=O)(=O)Nc2ccc3cn[nH]c3c2)ccc1Br	inconclusive: 4.47 µM [inhibitor, single point]	–
COc1ccccc1-c1cc(C(F)(F)F)nc(S(=O)(=O)CCCC(=O)Nc2cc(Br)ccc2O)n1	inconclusive: 11.2 µM [inhibitor, full curve, poor fit]	–
COc1cccc(CN2CC(C(=O)N3CCCC3)CCC2=O)c1 (stereo unspecified)	inconclusive: 89.1 µM [inhibitor, single point]	–

SMILES	Potency	activity, negative = inhibition
CCC(=O)N1CCc2cc(CNC(=O)Nc3ccc(OC)cc3OC)ccc21	inactive	–
COc1ccccc1N1CCN(S(=O)(=O)c2c(C)[nH]c(=O)[nH]c2=O)CC1	inactive	–
O=C1C(Cl)=C(NC(=O)c2ccccc2)C(=O)C(Cl)=C1NC(=O)c1ccccc1	active: 1.26 µM	–
Cc1ccc(NC(=O)CSc2ncc3ccccn23)cc1	inconclusive: 70.8 µM [inhibitor, partial curve, poor fit]	–
Cc1noc(C)c1S(=O)(=O)N1CCCC(C(=O)NCC2CCCO2)C1 (stereo unspecified)	inconclusive: 89.1 µM [inhibitor, single point]	–
Cc1cc(CN2CCCC(C(=O)Nc3cccc(-n4cccn4)c3)C2)cc(C)c1O (stereo unspecified)	inconclusive: 89.1 µM [inhibitor, single point]	–
CC(=O)c1ccc(N2CCN(c3ccc(S(=O)(=O)NCCCN(C)C)cc3[N+](=O)[O-])CC2)cc1	inconclusive: 70.8 µM [inhibitor, single point]	–
COc1cc(CNCc2ccccc2)cc(Cl)c1OC	inconclusive: 44.7 µM [inhibitor, partial curve, poor fit]	–
CCOc1c(/C=C(\C#N)C(N)=O)c2ccccc2n1CC	inconclusive: 8.91 µM [inhibitor, partial curve, poor fit]	–
COC(=O)c1ccc(CSc2nnc(-c3ccncc3)o2)o1	inactive	–
CCOC(=O)C1=C(C)NC(=O)NC1c1ccc(N(C)C)cc1 (stereo unspecified)	inconclusive: 31.6 µM [inhibitor, full curve]	–
Cc1ccc(F)cc1NCC(=O)Nc1ccc(Br)cc1	inconclusive: 79.4 µM [inhibitor, single point]	–
COc1cc(NS(=O)(=O)c2ccc(Cl)cc2)c(C(=O)O)cc1OC	inconclusive: 89.1 µM [inhibitor, single point]	–
C(=N\N1CCN(Cc2ccccc2)CC1)/c1cccnc1	inconclusive: 3.16 µM [inhibitor, partial curve, poor fit]	–
COc1ccccc1CNC(=O)c1sccc1-c1ccccc1	inactive	–
COc1cccc(NC(=O)Cn2c(=O)n(-c3cccc(OC)c3)c(=O)c3c4c(sc32)CCCC4)c1	inactive	–
CN(C)c1ccc(C(CNS(=O)(=O)c2cc(F)ccc2F)N2CCOCC2)cc1 (stereo unspecified)	inconclusive: 39.8 µM [inhibitor, single point]	–
O=C(CN(Cc1ccccc1)C(=O)CCC(=O)Nc1nccs1)NCc1ccccc1	inconclusive: 7.94 µM [inhibitor, partial curve, poor fit]	–
COCc1cc(C)nc2sc(C(=O)NN)c(-n3cccc3)c12	inactive	–
COCCN(CCOC)S(=O)(=O)c1ccc(C(=O)Nc2nnc(COC)o2)cc1	inconclusive: 20 µM [inhibitor, full curve]	–
COC(=O)c1c(C(=O)OC)c(-c2ccc(Cl)c(Cl)c2)n2c1CCC2	active: 50.1 µM	–
NC(=O)c1oc2ccccc2c1NC(=O)C1CC(=O)N(c2ccccc2)C1 (stereo unspecified)	active: 44.7 µM	–
O=[N+]([O-])c1ccc(N2CCN(S(=O)(=O)c3ccccc3[N+](=O)[O-])CC2)cc1N1CCc2ccccc2C1	inconclusive: 7.94 µM [inhibitor, partial curve, poor fit]	–
